Reference: PubChem BioAssay AID651820 (National Center for Advancing Translational Sciences (NCATS), 2012)
Hit rate of the full screen: of about 340,000 compounds, about 12,000 (3.5%) were called active. Inconclusive means that the source gave no clear call. Such entries were picked first, then a sample of the others. Calls follow the shape of the dose curve; as a rule, active = well fitted inhibition curve with a large enough effect; inconclusive = small, poorly fitted or top-dose-only effect, or another doubt; inactive = no such curve, though single readings can be large or run the other way. No potency is given beside an inconclusive call; the fits are too rough. More than one record can exist for a structure, and the calls need not agree.

Assay: qHTS Assay for Inhibitors of Hepatitis C Virus (HCV)
Conditions: Huh7.5.1 HCVcc-Cre (HCVcc is cell-culture hepatitis C virus) infection, luciferase reporter, 44 h; activity change, negative = inhibition: at 41.8 µM (top of the series) unless noted
Summary of the method: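 Infectious HCVcc-Cre (~0.5 moi) was added to cells just after compound, with cells seeded 4 h earlier at 1,000 per well. Luciferase activity after 44 h culture reported infection; substrate was incubated 15 min at room temperature before reading.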
% is scaled to controls: 0 for no effect and ±100 for the full control effect; potency is read from the fitted curve at half-maximal effect; tags tell the direction and shape of the fitted curve.

SMILES | Potency | activity change, negative = inhibition
CCN(CC)CCn1c(NCc2ccc(OC)cc2)nc2ccccc21 | inconclusive [inhibitor, single point] | –
CN(c1ccc(C(=O)N/N=C/c2cccc([N+](=O)[O-])c2)cc1)S(=O)(=O)c1ccccc1 | active: 12.6 µM | –
Cc1c(NC(=O)OCCSc2nc(N(C)C)nc(N(C)C)n2)sc(=S)n1C | active: 14.1 µM | –
CC(C)(C)C(=O)NC(=S)NNC(=O)c1sc2ccccc2c1Cl | inconclusive [inhibitor, full curve] | –
CCN(CC)CCN(C(=O)c1ccc(C(=O)c2ccccc2)cc1)c1nc2cc3c(cc2s1)OCO3 | – | inactive: -9.37%
CCc1nnc(NC(=O)c2ccc(S(=O)(=O)N(CC)Cc3ccccc3)cc2)o1 | inconclusive [inhibitor, single point] | –
Cc1ccc(C)c(C(=O)Cn2ncc(Cl)c(Cl)c2=O)c1 | active: 10 µM | –
COc1ccc(-c2cc(=O)oc3c(C)c(OC(C)C(C)=O)ccc23)cc1 (centres undefined) | inconclusive [inhibitor, partial curve] | –
CNc1oc(-c2ccc(C)cc2)nc1P(=O)(c1ccccc1)c1ccccc1 | inconclusive [inhibitor, single point] | –
CC(Cc1ccccc1)NC(=O)/C=C/c1ccc([N+](=O)[O-])cc1 (centres undefined) | inconclusive [inhibitor, single point] | –
COc1ccc(C2Nc3ccccc3C(=O)N2NS(=O)(=O)c2ccccc2)c(OC)c1 (centres undefined) | inconclusive [inhibitor, single point] | –
CCN(CC)S(=O)(=O)c1cccc(-c2nnc(SC(C)C(=O)NCCC3=CCCCC3)o2)c1 (centres undefined) | active: 11.2 µM | –
Fc1ccc(-[n+]2nc(Nc3ccccc3)sc2-c2c(Cl)cccc2Cl)cc1 | active: 10 µM | –
COc1ccc(C(NC(=O)N2CC(C)OC(C)C2)C(Cl)(Cl)Cl)cc1F (centres undefined) | inconclusive [inhibitor, single point] | –
CC(=O)Cn1nnc2sc3c(c2c1=O)CCC(C(C)(C)C)C3 (centres undefined) | inconclusive [inhibitor, partial curve] | –
Cc1cc(C)cc(N2CC(O)=C(c3nc4ccccc4c(=O)[nH]3)C2=N)c1 | active: 22.4 µM | –
Cc1nn(-c2ccccc2)c2nc(C(F)F)cc(C(F)F)c12 | inconclusive [inhibitor, partial curve] | –
Cc1cc(OC(C)C(=O)NCCCn2ccnc2)c2c(C)c(C)c(=O)oc2c1 (centres undefined) | – | inactive: -14.7%
Cc1cc(C)nc(SCC(=O)Nc2ccc(Br)cn2)n1 | inconclusive [inhibitor, single point] | –
CSc1nc(SC)c2c3c(oc2n1)COC(C)(C)C3 | inconclusive [inhibitor, single point] | –
CCOc1ccc(S(=O)(=O)N(C)c2ccc(OCC(=O)N3CCOCC3)cc2)cc1 | – | inactive: 1.68%
CCOC(=O)CSc1nc2c(c(=O)n(C)c(=O)n2C)n1Cc1ccccc1F | – | inactive: -0.781%

SMILES | Potency | activity change, negative = inhibition
Cc1ccc(CC(=O)N(C)CC(=O)Nc2ccc(N3CCOCC3)cc2)cc1C | inconclusive [inhibitor, single point] | –
O=C(CSc1ccc2ccccc2n1)NCc1ccc2c(c1)OCO2 | inconclusive [inhibitor, single point] | –
COc1cc(OC)cc(C2=NC3(CCC(C)CC3)NC2=S)c1 (centres undefined) | inconclusive [inhibitor, single point] | –
CCN(CC)C(=S)SCC(=O)Nc1nc(-c2ccccc2)c(-c2ccccc2)o1 | inconclusive [inhibitor, partial curve, poor fit] | –
Cc1ccc(C(CNS(=O)(=O)c2cc(F)ccc2F)N2CCN(C)CC2)cc1 (centres undefined) | inconclusive [inhibitor, single point] | –
CCOC(=O)N1CCC(NC(=O)c2cc3c(-c4cccc(OC)c4)nn(C)c3s2)CC1 | inconclusive [inhibitor, partial curve] | –
CCOC(=O)c1c(C)[nH]c(C(=O)OCC(=O)c2ccc(OC)cc2OC)c1C | inconclusive [inhibitor, partial curve] | –
CCn1cc(CN2CCN(Cc3ccsc3)C(CCO)C2)cn1 (centres undefined) | – | inactive: 18.5%
CC(C)(C)c1ccc(C(=O)NCCOc2ccccc2)cc1 | – | inactive: -2.47%
CCOc1ccc(NC(=S)N(CCc2c(C)[nH]c3ccc(C)cc23)Cc2ccncc2)cc1 | inconclusive [inhibitor, partial curve] | –
Cc1cccc2cc3c(N)c(C(=O)Nc4ccc(N5CCOCC5)cc4)sc3nc12 | active: 3.98 µM | –
CC1CN(c2ccc([N+](=O)[O-])c(NCCOc3ccc(Cl)cc3)c2)CC(C)N1 (centres undefined) | active: 8.91 µM | –
CCOC(=O)CNC(=O)CSc1nccn1Cc1ccco1 | – | inactive: 11.1%
COc1ccccc1Nc1nc(-c2cccc([N+](=O)[O-])c2)cs1 | inconclusive [inhibitor, partial curve] | –
COCCCNC(=O)c1ccc(Cn2c(=O)c3ccccc3n(CC(=O)NCCc3ccc(OC)c(OC)c3)c2=O)cc1 | inconclusive [inhibitor, partial curve, poor fit] | –
COc1cc(OC)nc(-n2ncc(Br)c(Br)c2=O)n1 | active: 3.98 µM | –
COC(=O)CSc1nc2c(c(=O)n(C)c(=O)n2C)n1CCC(C)C | inconclusive [inhibitor, single point] | –
COCCCNC(=O)C[C@H]1C[C@H](C(=O)N2CCOCC2)[C@@]2(C)c3[nH]c4ccc(Cl)cc4c3CCN2C1=O | inconclusive [inhibitor, single point] | –
Clc1nc2ccccc2cc1-c1nnn(-c2ccccc2)n1 | – | inactive: 5.85%
CCCCOc1ccc(NC(=O)CCSc2nccn2C)cc1 | inconclusive [inhibitor, single point] | –
CCOC(=O)CN1C(=O)C(Sc2n[nH]c(-c3cccc(C)c3)n2)CCc2ccccc21 (centres undefined) | – | inactive: -27.3%
COC(=O)c1cc(NC(=O)C2COc3ccccc3O2)cc(C(=O)OC)c1 (centres undefined) | inconclusive [inhibitor, partial curve] | –
